# The other results are listed elsewhere or left out. Single values are uncertain, as repeats are few or missing.
# Columns and labels:
# Assay in all cases: cell count relative to DMSO control; melanoma cells; higher = more viable cells
# Conditions in all cases: library dose: standard library concentration; 72 h
# [1] = test system: A101D
# [2] = test system: A2058
# [3] = test system: A375
# 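Also: cells treated in 1,536-well plates, then fixed and DAPI-stained, with nuclei counted from automated high-throughput microscope images.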
Structure (SMILES),cell count [1] [%],cell count [2] [%],cell count [3] [%]
"Cc1cn(-c2cc(NC(=O)c3ccc(C)c(Nc4nccc(-c5cccnc5)n4)c3)cc(C(F)(F)F)c2)cn1 [nilotinib] + Cc1nc(Nc2ncc(C(=O)Nc3c(C)cccc3Cl)s2)cc(N2CCN(CCO)CC2)n1 [dasatanib] (first compound 1 µM, partner dose 0.02 µM)",91.2,84.5,66.5
"COc1ccc(C2=N[C@@H](c3ccc(Cl)cc3)[C@@H](c3ccc(Cl)cc3)N2C(=O)N2CCNC(=O)C2)c(OC(C)C)c1 [Nutlin-3] + CNC(=O)c1cc(Oc2ccc(NC(=O)Nc3ccc(Cl)c(C(F)(F)F)c3)cc2)ccn1 [sorafenib] (first compound 0.5 µM, partner dose 2 µM)",75.7,128,102
"CC(C)C[C@H](NC(=O)[C@H](Cc1ccccc1)NC(=O)c1cnccn1)B(O)O [Bortezomib] + COc1cc2c(Oc3ccc4[nH]c(C)cc4c3F)ncnc2cc1OCCCN1CCCC1 [cediranib] (first compound 0.005 µM, partner dose 2 µM)",17.9,10.8,74.4
"Cc1cc(Nc2cc(N3CCN(C)CC3)nc(/C=C/c3ccccc3)n2)n[nH]1 + CNC(=O)c1cc(Oc2ccc(NC(=O)Nc3ccc(Cl)c(C(F)(F)F)c3)cc2)ccn1 [sorafenib] (first compound 0.2 µM, partner dose 2 µM)",82.9,85,122
"COc1ccc(C2=N[C@@H](c3ccc(Cl)cc3)[C@@H](c3ccc(Cl)cc3)N2C(=O)N2CCNC(=O)C2)c(OC(C)C)c1 [Nutlin-3] + O=C(CCCCCCC(=O)Nc1ccccc1)NO [vorinostat] (first compound 0.5 µM, partner dose 0.4 µM)",57.9,91.9,85.2
"CC(C)C[C@H](NC(=O)[C@H](Cc1ccccc1)NC(=O)c1cnccn1)B(O)O [Bortezomib] + NCC(=O)Nc1ccc(-n2nc(C(F)(F)F)cc2-c2ccc3c(ccc4ccccc43)c2)cc1 [OSU03012] (first compound 0.005 µM, partner dose 5 µM)",9.93,9.9,35.8
"COc1ccc(C2=N[C@@H](c3ccc(Cl)cc3)[C@@H](c3ccc(Cl)cc3)N2C(=O)N2CCNC(=O)C2)c(OC(C)C)c1 [Nutlin-3] + OCCn1cc(-c2cnc3nnn(Cc4ccc5ncccc5c4)c3n2)cn1 [PF04217903] (first compound 0.5 µM, partner dose 5 µM)",58.9,106,86.8
"Cc1cc(Nc2cc(N3CCN(C)CC3)nc(/C=C/c3ccccc3)n2)n[nH]1 + Cn1nnc2c(C(N)=O)ncn2c1=O [temozolomide] (first compound 0.2 µM, partner dose 10 µM)",85.1,44.5,97.8
"CC(C)C[C@H](NC(=O)[C@H](Cc1ccccc1)NC(=O)c1cnccn1)B(O)O [Bortezomib] + C[C@@H]1CCN(C(=O)CC#N)C[C@@H]1N(C)c1ncnc2[nH]ccc12 [CP690550] (first compound 0.005 µM, partner dose 5 µM)",23.3,16.6,91.7
"Cn1c(=O)n(-c2ccc(C(C)(C)C#N)cc2)c2c3cc(-c4cnc5ccccc5c4)ccc3ncc21 + NC(=O)Nc1cc(-c2cccc(F)c2)sc1C(=O)N[C@H]1CCCNC1 [AZD7762] (first compound 0.02 µM, partner dose 0.1 µM)",59.5,61.5,45.9
"Cc1cn(-c2cc(NC(=O)c3ccc(C)c(Nc4nccc(-c5cccnc5)n4)c3)cc(C(F)(F)F)c2)cn1 [nilotinib] + CC1(C)NC(=O)N(c2ccc([N+](=O)[O-])c(C(F)(F)F)c2)C1=O [nilutamide] (first compound 1 µM, partner dose 5 µM)",94,83.8,132
"CC(C)C[C@H](NC(=O)[C@H](Cc1ccccc1)NC(=O)c1cnccn1)B(O)O [Bortezomib] + O=C(O)[C@@H]1[O][Sb](=[O])([O][Sb]2(=[O])[O][C@H]([C@H](O)CO)[C@H](O)[C@H](C(=O)O)[O]2)[O][C@H]([C@H](O)CO)[C@@H]1O [stibogluconate] (first compound 0.005 µM, partner dose 10 µM)",10.1,12,74.7

# — the supplement of paper PMC4604168 (melanoma cell lines)
